Among the data in article PMC8633501 are binding values, retold here.

What all share (assay): two-hybrid; truncations fused to the GAL4 binding domain (pGBKT7) with full-length ROC8 or ROC5 fused to the AD (pGADT7) in yeast AH109; growth on SD/-Trp/-Leu/-His/-Ade
Test [1] addresses T1, BD-ROC5 X8 (amino acids 154-308) (rice (Oryza sativa L.)) (UniProt Q6EPF0).
T1 sequence: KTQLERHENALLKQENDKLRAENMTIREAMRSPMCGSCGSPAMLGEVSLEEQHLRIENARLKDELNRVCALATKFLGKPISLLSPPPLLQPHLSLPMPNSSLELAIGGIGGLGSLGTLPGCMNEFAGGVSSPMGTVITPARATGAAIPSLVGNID

Test [2] concerns the target T2, BD-ROC8 P7 (amino acids 436-710) (rice (Oryza sativa L.)) (UniProt Q69T58).
T2 sequence: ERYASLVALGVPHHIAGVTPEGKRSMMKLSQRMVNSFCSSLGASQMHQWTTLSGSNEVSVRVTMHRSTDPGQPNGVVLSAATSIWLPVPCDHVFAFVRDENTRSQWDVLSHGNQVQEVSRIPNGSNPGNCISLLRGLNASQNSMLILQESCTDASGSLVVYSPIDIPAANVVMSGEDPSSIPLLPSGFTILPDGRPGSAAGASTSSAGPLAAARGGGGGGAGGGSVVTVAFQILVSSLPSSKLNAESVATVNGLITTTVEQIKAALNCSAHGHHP

Test [3] deals with T3, BD-ROC8 P6 (amino acids 201-435) (rice (Oryza sativa L.)) (UniProt Q69T58).
T3 sequence: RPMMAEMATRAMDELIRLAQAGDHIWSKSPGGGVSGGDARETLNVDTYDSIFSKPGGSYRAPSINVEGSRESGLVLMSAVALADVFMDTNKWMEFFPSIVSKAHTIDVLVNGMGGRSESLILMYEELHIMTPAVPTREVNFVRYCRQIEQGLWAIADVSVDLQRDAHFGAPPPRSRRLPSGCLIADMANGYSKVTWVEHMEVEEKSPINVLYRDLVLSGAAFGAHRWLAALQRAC

The target in test [4] is T4, BD-ROC5 X5 (amino acids 309-804) (rice (Oryza sativa L.)) (UniProt Q6EPF0).
T4 sequence: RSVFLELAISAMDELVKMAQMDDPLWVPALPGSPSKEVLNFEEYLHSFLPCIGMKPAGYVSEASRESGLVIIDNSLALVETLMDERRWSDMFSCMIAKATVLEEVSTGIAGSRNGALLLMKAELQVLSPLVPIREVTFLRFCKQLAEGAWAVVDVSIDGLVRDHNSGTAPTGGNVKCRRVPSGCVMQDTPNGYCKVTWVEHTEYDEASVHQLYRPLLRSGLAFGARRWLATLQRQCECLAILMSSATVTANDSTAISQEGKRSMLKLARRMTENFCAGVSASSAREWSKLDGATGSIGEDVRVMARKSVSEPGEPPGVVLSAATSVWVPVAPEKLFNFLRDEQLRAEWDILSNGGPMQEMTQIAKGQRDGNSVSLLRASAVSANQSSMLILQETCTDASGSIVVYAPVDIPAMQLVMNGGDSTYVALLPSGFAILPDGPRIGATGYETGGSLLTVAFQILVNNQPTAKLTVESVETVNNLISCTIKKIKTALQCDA

Test [5] addresses T5, BD-ROC8 P2 (amino acids 1-70) (rice (Oryza sativa L.)) (UniProt Q69T58).
T5 sequence: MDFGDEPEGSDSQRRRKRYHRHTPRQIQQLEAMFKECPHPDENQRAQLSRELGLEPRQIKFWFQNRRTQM

In test [6] the target is T6, BD-ROC8 P5 (amino acids 201-710) (rice (Oryza sativa L.)) (UniProt Q69T58).
T6 sequence: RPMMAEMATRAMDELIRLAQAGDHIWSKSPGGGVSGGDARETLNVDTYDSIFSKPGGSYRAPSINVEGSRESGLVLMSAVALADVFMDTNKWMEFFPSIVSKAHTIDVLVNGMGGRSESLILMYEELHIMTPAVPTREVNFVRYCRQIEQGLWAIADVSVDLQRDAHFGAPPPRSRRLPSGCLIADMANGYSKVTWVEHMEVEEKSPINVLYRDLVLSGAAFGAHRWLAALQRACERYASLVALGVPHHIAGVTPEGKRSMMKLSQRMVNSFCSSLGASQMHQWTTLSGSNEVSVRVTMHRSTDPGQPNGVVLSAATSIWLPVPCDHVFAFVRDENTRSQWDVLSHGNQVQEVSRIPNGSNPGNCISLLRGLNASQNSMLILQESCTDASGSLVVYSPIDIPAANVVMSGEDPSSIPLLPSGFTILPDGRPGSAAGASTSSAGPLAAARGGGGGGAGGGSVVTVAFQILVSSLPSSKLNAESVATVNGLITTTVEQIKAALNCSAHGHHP

Test [7] addresses T7, BD-ROC5 X9 (amino acids 97-308) (rice (Oryza sativa L.)) (UniProt Q6EPF0).
T7 sequence: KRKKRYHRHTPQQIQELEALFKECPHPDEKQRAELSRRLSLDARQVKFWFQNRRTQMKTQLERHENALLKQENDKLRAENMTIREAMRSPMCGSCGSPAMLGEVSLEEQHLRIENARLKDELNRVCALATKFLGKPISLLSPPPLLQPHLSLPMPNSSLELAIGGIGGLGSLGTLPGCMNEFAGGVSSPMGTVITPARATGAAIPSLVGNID

Test [8] has as its target T8, BD-ROC8 P3 (amino acids 18-70) (rice (Oryza sativa L.)) (UniProt Q69T58).
T8 sequence: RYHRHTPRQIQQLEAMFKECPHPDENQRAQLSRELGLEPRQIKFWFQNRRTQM

Test [9] concerns the target T9, BD-ROC5 X7 (amino acids 545-804) (rice (Oryza sativa L.)) (UniProt Q6EPF0).
T9 sequence: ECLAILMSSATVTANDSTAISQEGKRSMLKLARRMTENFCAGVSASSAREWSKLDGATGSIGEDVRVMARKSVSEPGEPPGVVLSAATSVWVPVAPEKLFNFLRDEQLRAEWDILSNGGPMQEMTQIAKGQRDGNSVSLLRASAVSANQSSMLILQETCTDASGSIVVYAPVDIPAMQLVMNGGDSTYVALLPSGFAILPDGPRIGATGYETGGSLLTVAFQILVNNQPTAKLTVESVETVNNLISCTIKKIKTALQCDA

Results are given in words; binding and its absence hold for the method and conditions named. Some entries that bind do so weakly or less than the wild type. Where a sequence is shown, tags or fusion partners need not be part of it.

B1: AD-ROC5 (full-length ROC5 fused to the GAL4 activation domain) (protein, UniProt Q6EPF0 1-804)
chain: MSFGGLFDGGGGGGMQFPFASGFASSPALSLALDNAGGGIGGRMLGGGAGAGSSAGGAMTRDTEAENDSRSGSDHLDAISAAGEDDVEDAEPSNSRKRKKRYHRHTPQQIQELEALFKECPHPDEKQRAELSRRLSLDARQVKFWFQNRRTQMKTQLERHENALLKQENDKLRAENMTIREAMRSPMCGSCGSPAMLGEVSLEEQHLRIENARLKDELNRVCALATKFLGKPISLLSPPPLLQPHLSLPMPNSSLELAIGGIGGLGSLGTLPGCMNEFAGGVSSPMGTVITPARATGAAIPSLVGNIDRSVFLELAISAMDELVKMAQMDDPLWVPALPGSPSKEVLNFEEYLHSFLPCIGMKPAGYVSEASRESGLVIIDNSLALVETLMDERRWSDMFSCMIAKATVLEEVSTGIAGSRNGALLLMKAELQVLSPLVPIREVTFLRFCKQLAEGAWAVVDVSIDGLVRDHNSGTAPTGGNVKCRRVPSGCVMQDTPNGYCKVTWVEHTEYDEASVHQLYRPLLRSGLAFGARRWLATLQRQCECLAILMSSATVTANDSTAISQEGKRSMLKLARRMTENFCAGVSASSAREWSKLDGATGSIGEDVRVMARKSVSEPGEPPGVVLSAATSVWVPVAPEKLFNFLRDEQLRAEWDILSNGGPMQEMTQIAKGQRDGNSVSLLRASAVSANQSSMLILQETCTDASGSIVVYAPVDIPAMQLVMNGGDSTYVALLPSGFAILPDGPRIGATGYETGGSLLTVAFQILVNNQPTAKLTVESVETVNNLISCTIKKIKTALQCDA
Turning to B1, the binding result in test [1] was “binds”; in [2], “no binding”; in test [3], “no binding”; in [4], “binds”; in test [5], “no binding”; in test [6], “binds”. The binding entry is reported as “binds” in [7] and “no binding” in test [8].

B2: AD-ROC8 (full-length ROC8 fused to the GAL4 activation domain) (protein, UniProt Q69T58 1-710)
chain: MDFGDEPEGSDSQRRRKRYHRHTPRQIQQLEAMFKECPHPDENQRAQLSRELGLEPRQIKFWFQNRRTQMKAQHERADNCFLRAENDKIRCENIAIREALKNVICPTCGGPPVGEDYFDEQKLRMENARLKEELDRVSNLTSKYLGRPFTQLPPATPPMTVSSLDLSVGGMGGPSLDLDLLSGGSSGIPFQLPAPVSDMERPMMAEMATRAMDELIRLAQAGDHIWSKSPGGGVSGGDARETLNVDTYDSIFSKPGGSYRAPSINVEGSRESGLVLMSAVALADVFMDTNKWMEFFPSIVSKAHTIDVLVNGMGGRSESLILMYEELHIMTPAVPTREVNFVRYCRQIEQGLWAIADVSVDLQRDAHFGAPPPRSRRLPSGCLIADMANGYSKVTWVEHMEVEEKSPINVLYRDLVLSGAAFGAHRWLAALQRACERYASLVALGVPHHIAGVTPEGKRSMMKLSQRMVNSFCSSLGASQMHQWTTLSGSNEVSVRVTMHRSTDPGQPNGVVLSAATSIWLPVPCDHVFAFVRDENTRSQWDVLSHGNQVQEVSRIPNGSNPGNCISLLRGLNASQNSMLILQESCTDASGSLVVYSPIDIPAANVVMSGEDPSSIPLLPSGFTILPDGRPGSAAGASTSSAGPLAAARGGGGGGAGGGSVVTVAFQILVSSLPSSKLNAESVATVNGLITTTVEQIKAALNCSAHGHHP
For B2, the binding entry in [1] is on record as “binds”; in test [2], “binds”; in [4], “binds”; in [6], “binds”; in [7], “binds”; in [9], “no binding”.
